Values quoted from earlier work, collected in publication PMC8058401, “Identification and Characterization of Zika Virus NS5 Methyltransferase Inhibitors” (Frontiers in Cellular and Infection Microbiology, 2021).

Legend:
WNV, DENV-2 and JEV = conditions: cell-based assays; ref Brecher et al., 2015; read-out: EC50, antiviral efficacy toward WNV, DENV-2 and JEV; cited from earlier work
NS5 MTase of WNV and YFV = conditions: in vitro; ref Brecher et al., 2015; cited from earlier work

Cc1cc(N)c2cc(NC(=O)Nc3ccc4nc(C)cc(N)c4c3)ccc2n1 [NSC 12155]
EC50 (WNV, DENV-2 and JEV): 1 to 7 µM | IC50 (NS5 MTase of WNV and YFV): 0.5 to 3 µM
